Measurements: PubChem BioAssay AID488969 (Vanderbilt High Throughput Screening Facility, 2010)
In all, about 110,000 compounds were measured (“z-score”: median about -0.1, highest 2% from about 2 on). The list shows a part of the results.

The compounds below were run against Metabotropic glutamate receptor 8 (Rattus norvegicus) (UniProt P70579) (assay: mGluR8 Gi/Go-coupled signaling modulation – cell-based, rat, thallium flux, HTS, primary screen (AID 488969)). Conditions: HEK293 rat mGluR8, GIRK (G protein-gated inwardly rectifying potassium channel) thallium flux, FluoZin2; at 10 µM; stronger effect = higher value; submaximal glutamate (EC20) added with thallium.
Sequence of UniProt P70579 (P70579 whole entry, looked up): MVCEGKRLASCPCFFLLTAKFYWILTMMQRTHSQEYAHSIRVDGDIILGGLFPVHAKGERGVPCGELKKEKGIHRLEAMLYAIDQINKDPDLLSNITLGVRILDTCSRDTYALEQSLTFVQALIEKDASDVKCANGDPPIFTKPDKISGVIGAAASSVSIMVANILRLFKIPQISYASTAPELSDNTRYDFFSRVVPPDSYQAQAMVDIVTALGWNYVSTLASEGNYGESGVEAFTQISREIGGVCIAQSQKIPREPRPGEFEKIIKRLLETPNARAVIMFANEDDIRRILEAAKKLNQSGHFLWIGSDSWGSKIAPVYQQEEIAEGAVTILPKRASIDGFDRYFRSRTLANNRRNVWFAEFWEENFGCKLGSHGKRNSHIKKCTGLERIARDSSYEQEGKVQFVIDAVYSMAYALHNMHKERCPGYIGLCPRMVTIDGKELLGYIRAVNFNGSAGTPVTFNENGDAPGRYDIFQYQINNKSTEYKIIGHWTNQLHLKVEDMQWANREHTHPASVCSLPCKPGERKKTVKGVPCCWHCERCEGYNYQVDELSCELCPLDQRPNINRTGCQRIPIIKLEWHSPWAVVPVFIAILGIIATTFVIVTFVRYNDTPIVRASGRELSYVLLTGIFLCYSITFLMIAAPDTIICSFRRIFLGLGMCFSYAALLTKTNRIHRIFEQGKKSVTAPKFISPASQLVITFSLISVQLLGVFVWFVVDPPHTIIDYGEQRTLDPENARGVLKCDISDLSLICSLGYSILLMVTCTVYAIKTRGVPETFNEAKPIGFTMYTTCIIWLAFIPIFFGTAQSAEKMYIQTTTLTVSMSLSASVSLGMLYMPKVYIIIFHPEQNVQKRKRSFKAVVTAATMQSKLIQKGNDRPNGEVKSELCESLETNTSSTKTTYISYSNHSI

| Compound | z-score |
| --- | --- |
| COc1ccc(Nc2nc(OC)nc(N3CCN(c4ccc(OC)cc4)CC3)n2)cc1 | -0.184 |
| O=C(CSc1nc(Nc2ccccc2)nc(N2CCOCC2)n1)N1CCCC1 | -0.384 |
| Cc1occc1-c1nnc(SCC(N)=O)n1Cc1ccccc1 | -0.113 |
| CSc1ccc(Cl)c(C(=O)OCC(=O)NCC(C)C)c1 | -0.206 |
| COc1ccc(NC(=O)NCCCN2CCCCC2C)cc1 (stereo unspecified) | 0.284 |
| Cc1cccc(NC(=S)NN2CCOCC2)c1C | -0.345 |
| CCc1ccc(OCc2nnc(NC(=O)c3cccs3)s2)cc1 | -0.163 |
| Cc1nnc(SCC(=O)OC2CC(C)CCC2C(C)C)[nH]c1=O (stereo unspecified) | 0.431 |
| CC(=O)Nc1sc2c(c1C(c1ccc(Cl)cc1)N1CCOCC1)CCCC2 (stereo unspecified) | -0.0741 |
| O=C(c1coc(=O)c(Br)c1)N1CCOCC1 | 0.0321 |
| CCOc1ccc(CC(=O)NNC(=S)Nc2ccccc2)cc1Br | 0.065 |
| O=C1c2ccccc2C(=O)N1CCCc1nc(-c2ccc(Cl)cc2)no1 | -0.178 |
| CCOC(=O)C1CCN(C/C=C/c2ccccc2OC)CC1 | 0.302 |
| CCN(CC)S(=O)(=O)c1cccc(C(=O)N/N=C/c2ccc(O)c(O)c2O)c1 | 0.525 |
| Cc1ccccc1C(=O)Nc1ccc2c(c1)OCO2 | -0.504 |
| CCSc1nnc(NC(=O)[C@@H](NC(=O)c2cccc(C)c2)C(C)C)s1 | -0.402 |
| Cc1cccc(NC(=O)c2c(F)c(F)c(F)c(F)c2F)c1 | 0.346 |
| O=C(CN1C(=O)CC(c2ccccc2)=Nc2ccccc21)NCc1ccccc1 | -0.194 |
| O=C(CSc1nnc2scc(-c3ccccc3)n12)NCc1ccc2c(c1)OCO2 | -0.338 |

| Compound | z-score |
| --- | --- |
| CCOc1ccc(N(CC(=O)O)S(=O)(=O)c2ccc(OC)c(OC)c2)cc1 | 0.044 |
| CCc1ccccc1Nc1nc(N)nc(CSCC(=O)Nc2ccc(C)c(C)c2)n1 | -2.23 |
| COC(=O)C1(S(=O)(=O)c2cc(Br)cc3c2N(C(C)=O)CC3)CC1 | -0.117 |
| COc1ccc2c(c1)c(C(=O)N1CCN(C)CC1)c(C)n2-c1ccccc1 | 0.208 |
| Cc1nc2c(c(C)nn2-c2ccccc2)c(C)c1Cl | 0.509 |
| COc1cc(/C=N/NC(N)=O)c(Br)cc1OCC(=O)Nc1ccccc1C | -0.293 |
| Cc1ccc2cc(CN(Cc3ccco3)C(=O)NC3CCCCC3)c(=O)[nH]c2c1C | 0.547 |
| COC(=O)CSc1nnc(-c2cccnc2)o1 | -0.0715 |
| CC(=O)c1c(C(C)=O)c(C)n(-c2ccc(C)c(NC(=O)c3ccccc3Cl)c2)c1C | -0.455 |
| O=C(Cn1nnc(-c2ccccc2)n1)OCc1csc(-c2ccccc2)n1 | -0.49 |
| COc1cc(S(=O)(=O)N2CCN(Cc3ccccc3)CC2)ccc1Br | -0.237 |
| COc1cc(OC)cc(-c2nnc(SCC(=O)N3c4ccccc4Sc4ccccc43)o2)c1 | -0.17 |
| CCCc1cc(=O)[nH]c(Nc2ccc(O)cc2)n1 | -1.37 |
| CCOC(=O)N1CCN(C(=O)CN(C2CCCCC2)S(=O)(=O)c2ccc(C)cc2)CC1 | 0.464 |
| O=C(COC(=O)/C=C/c1nc2ccccc2s1)Nc1cccc(Cl)c1Cl | 0.00537 |
| COc1ccc([C@H]2[C@H](C(=O)C(C)(C)C)N3N=Cc4ccccc4C3[C@]23N=C(c2ccccc2)OC3=O)cc1 (stereo partly specified) | -0.129 |
| Cc1ccc2cc3cc(C(=O)NCc4ccc5c(c4)OCO5)oc3nc2c1 | -0.411 |
| COc1ccccc1C1CC(c2ccc(Br)cc2)=NN1C(=O)c1cccnc1 (stereo unspecified) | -0.436 |
| COC(=O)c1c(NS(C)(=O)=O)sc2c1CCCC2 | 0.0189 |

| Compound | z-score |
| --- | --- |
| COc1cccc(Cn2cccc(NC(=O)Nc3ccc(C#N)cc3)c2=O)c1 | -0.975 |
| Cc1cc(C)c(C#N)c(SCc2[nH]nc3c2C(c2ccc(F)cc2)C(C#N)=C(N)O3)n1 (stereo unspecified) | -0.0705 |
| Cc1c(CCC(C)C)c(-n2ccnc2C)n2c(nc3ccccc32)c1C#N | -0.329 |
| CCOC(=O)c1c(N)sc2c1CCS(=O)(=O)C2 | 0.497 |
| CCC(CC)c1nnc(NC(=O)c2ccc([N+](=O)[O-])cc2)s1 | -0.0159 |
| CCOC(=O)c1[nH]nc(N)c1NC(=O)c1ccc(Cl)cc1Cl | -0.368 |
| CCOC(=O)CSc1ncc(OC)c(Sc2ccc(OC)cc2)n1 | -0.366 |
| Cc1cc(C)c(S(=O)(=O)c2ccccc2)c(Cl)n1 | -0.000337 |
| COc1cc(OC)c(C(=O)Nc2ncn[nH]2)cc1OC | 0.964 |
| COC(=O)c1nnn(-c2ccccc2)c1N | -0.148 |
| COC(/C=C/Nc1ccc(Br)cc1)=C(C#N)C#N | -0.209 |
| CCCC(=O)Nc1nnc(-c2ccc(Cl)s2)o1 | 0.159 |
| CCOC(=O)c1c(NC(=O)c2nn(CC)cc2Br)c(C#N)nn1-c1ccccc1 | 0.664 |
| CCOC(=O)c1cnc2c(N=Nc3ccccc3)c(N)nn2c1N | 0.249 |
| Cc1ccc(CNC(=O)/C(C#N)=C\c2ccc(N(C)C)cc2)cc1 | 0.253 |
| O=S(=O)(c1cccc(-c2nnc(-c3cccnc3)o2)c1)N1CCCCC1 | -0.241 |
| COCCn1c(C(C)C)nc2oc3ccccc3c(=O)c2c1=O | -0.496 |
| CC(C)CCn1c(SCC(=O)c2ccccc2)nc2c1c(=O)[nH]c(=O)n2C | -1.14 |
